# The campaign covered roughly 310,000 compounds. About 2,200 (0.71%) showed an effect of 50% or more. The effect is printed as a negative number. This is one part of the list.
# Molecular target: human ether-à-go-go-related gene (hERG) potassium channel (human, UniProt Q12809)
# Assay: primary screen, population patch clamp on CHO cells stably expressing hERG
# human ether-à-go-go-related gene (hERG) potassium channel, sequence (Q12809 whole entry, looked up): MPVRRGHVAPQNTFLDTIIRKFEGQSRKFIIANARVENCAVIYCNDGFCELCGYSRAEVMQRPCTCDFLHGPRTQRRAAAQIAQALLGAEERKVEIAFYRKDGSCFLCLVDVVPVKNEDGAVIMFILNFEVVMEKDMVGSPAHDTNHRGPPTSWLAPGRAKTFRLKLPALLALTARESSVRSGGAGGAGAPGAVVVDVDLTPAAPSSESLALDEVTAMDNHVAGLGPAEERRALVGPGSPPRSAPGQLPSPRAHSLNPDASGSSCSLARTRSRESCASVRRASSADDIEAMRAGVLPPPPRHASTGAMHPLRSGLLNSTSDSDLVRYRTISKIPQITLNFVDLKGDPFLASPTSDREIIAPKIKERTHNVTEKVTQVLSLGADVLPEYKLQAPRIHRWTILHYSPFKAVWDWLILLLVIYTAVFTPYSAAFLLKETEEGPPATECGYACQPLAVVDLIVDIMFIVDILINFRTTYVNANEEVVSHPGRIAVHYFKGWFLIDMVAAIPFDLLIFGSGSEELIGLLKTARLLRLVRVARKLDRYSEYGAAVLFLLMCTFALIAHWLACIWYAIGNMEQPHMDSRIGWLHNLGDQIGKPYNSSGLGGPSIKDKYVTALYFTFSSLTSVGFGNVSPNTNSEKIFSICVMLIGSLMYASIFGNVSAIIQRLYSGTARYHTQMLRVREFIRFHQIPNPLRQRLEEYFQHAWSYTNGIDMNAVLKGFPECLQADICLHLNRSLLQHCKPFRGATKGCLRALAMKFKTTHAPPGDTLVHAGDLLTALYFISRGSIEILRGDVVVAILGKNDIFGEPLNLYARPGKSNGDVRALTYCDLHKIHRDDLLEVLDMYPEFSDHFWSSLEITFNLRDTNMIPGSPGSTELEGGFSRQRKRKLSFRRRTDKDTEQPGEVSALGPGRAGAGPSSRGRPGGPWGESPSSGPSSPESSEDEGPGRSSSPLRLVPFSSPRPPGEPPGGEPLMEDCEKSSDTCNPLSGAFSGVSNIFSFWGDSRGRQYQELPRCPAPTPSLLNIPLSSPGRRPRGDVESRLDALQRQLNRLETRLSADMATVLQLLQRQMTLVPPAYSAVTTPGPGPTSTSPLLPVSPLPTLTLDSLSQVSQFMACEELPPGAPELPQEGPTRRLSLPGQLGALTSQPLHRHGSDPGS
row,Structure (SMILES),"hERG current change (%, negative = inhibition) at 1uM"
1,Cc1ccc(S(=O)(=O)c2nc(-c3ccc(F)cc3)oc2SCC(=O)NCC2CCCO2)cc1 (stereo not shown),12.6%
2,Cc1cccc(Cn2cc3c(=O)n(Cc4cccc(F)c4)nc-3c3ccccc32)c1,12.5%
3,O=C(CS(=O)(=O)c1ccccc1)Nc1ccc(S(=O)(=O)Nc2ncccn2)cc1,20.8%
4,CC(C)CCNC(=O)CN(CC1CCCO1)C(=O)CCC(=O)Nc1nccs1 (stereo not shown),11.2%
5,CCOC(=O)NC(=O)/C(N=Nc1cc(C)cc(C)c1)=C(\C)O,12.3%
6,COC(=O)c1ccc(OCCOc2ccc(C(=O)OC)cc2)cc1,-12.9%
7,COc1ccc(CC(=O)NCCCSc2ccccc2)cc1OC,6.49%
8,Cc1ccc(C(=O)NCC(=O)N2CCCCCCC2)cc1C,6.7%
9,CC(Oc1ccccc1Cl)C(=O)N1CCOCC1 (stereo not shown),13.4%
10,C=CCSc1nnc(-c2cc3c(-c4ccccc4)nn(C)c3s2)n1C,7.5%
11,O=C(COc1ccc(S(=O)(=O)N2CCCC2)cc1)NCc1cccnc1,6.1%
12,COc1c(F)c(F)c(C(=O)Nc2ccc(-c3nc4ccccc4[nH]3)cc2)c(F)c1F,13.3%
13,CSc1ccc(/C=C(\NC(=O)c2ccc(C)cc2)C(=O)Nc2cccc(C)c2)cc1,14.4%
14,Cc1ccccc1S(=O)(=O)Cc1ccc(C(=O)NCCCN(C)Cc2ccccc2)o1,-0.242%
15,CCc1cc2c(=O)nc3n(c2s1)Cc1ccccc1/C3=C(/O)c1ccc(F)cc1,-3.5%
16,O=C(c1ccccc1Cc1ccccc1)N1CCN(S(=O)(=O)c2ccc(F)cc2)CC1,14%
17,CCN=C(Nc1ccc2c(c1)OCO2)SC1CC(=O)N(c2ccc(OC)cc2)C1=O (stereo not shown),9.61%
18,Cc1cnc(C(=O)OCc2ccc(Br)cc2)cn1,12.9%
19,O=C(NC(=S)NCCc1ccccc1)c1ccco1,10.1%
20,CCOc1ccc(C2=Nn3c(nnc3-c3ccccn3)SC2)cc1,3.6%
21,Cc1csc2c(N3CCN(C(=O)NC(C)(C)C)CC3)ncnc12,12.7%
22,CC(C)n1cc(/C=C2/NC(=O)N(c3cccc(Cl)c3)C2=O)c2ccccc21,-0.492%

row,Structure (SMILES),"hERG current change (%, negative = inhibition) at 1uM"
1,CCN(CC)c1ccc(NC(=O)OC)cc1,7.78%
2,O=C(CSc1nncs1)NCCCc1ccccc1,23.5%
3,CCOc1ncccc1C(=O)NCCN1C(=O)S/C(=C/c2cccs2)C1=O,9.27%
4,N#CCCN(C(=S)NC(=O)c1ccco1)c1ccccc1F,10.1%
5,CC(C)NC(=O)C(=O)Nc1ccc2c(c1)N(S(=O)(=O)c1cccs1)CCC2,14%
6,O=C(Nc1cccc(F)c1)c1ccc(S(=O)(=O)NCC2CCCO2)cc1 (stereo not shown),2.38%
7,Cc1cc([N+](=O)[O-])cc(/C=N\NC(=O)C2COc3ccccc3O2)c1O (stereo not shown),8.95%
8,CN(C(=O)c1ccc(Br)o1)C1CCCCC1,6.44%
9,O=C(CN1CCN(S(=O)(=O)c2ccccc2)CC1)NC(=O)NC1CCCCC1,1.63%
10,Cc1cc2nc3c(nc2cc1C)CCCC3,11.3%
11,CC(C)(C)c1ccc(C2=CC(c3ccccc3F)n3ncnc3N2)cc1 (stereo not shown),3.19%
12,COc1cc(C(=O)NCC(=O)N/N=C(/C)c2cccs2)cc(OC)c1OC,5.74%
13,CSS(=O)(=O)c1cccc2cccnc12,14.2%
14,CC(C)(C)c1ccc(C(=O)NC(=S)Nn2cnnc2)cc1,14.5%
15,Cc1ccc(-c2c(NC(=O)c3ccco3)oc3ccccc3c2=O)cc1,25.7%
16,CCOC(=O)C(C)Oc1ccc(NC(=O)C(Cl)Cl)cc1 (stereo not shown),5.83%
17,CCOC(=S)N/C(=N\S(=O)(=O)c1ccc(C)cc1)c1ccccc1,11.6%
18,O=C(Nc1ccc(NC(=O)N2CCN(c3ccccc3O)CC2)cc1)N1CCN(c2ccccc2O)CC1,14.5%
19,Cc1cccc(Nc2ccccc2C(=O)OCC(=O)N(C)C2CCS(=O)(=O)C2)c1C (stereo not shown),1.68%
20,CC(C)OCCCNC(=O)c1cc(Sc2ccc(F)cc2)nc2ccccc12,3.36%
21,COc1cc(CNC2CCCCCC2)cc(OC)c1O.O=C(O)C(=O)O,16%
22,Cc1cc(Cl)ccc1C(=O)C1CCCN(C(=O)c2cc(C(C)C)no2)C1 (stereo not shown),0.288%

row,Structure (SMILES),"hERG current change (%, negative = inhibition) at 1uM"
1,COC(=O)c1c(C(=O)OC)c2ccccn2c1C(=O)c1ccc([N+](=O)[O-])cc1,8.27%
2,CC1=Nc2ccccc2N=C(NC(=O)CSC(=S)N2CCN(C)CC2)C1c1ccccc1 (stereo not shown),9.3%
3,COc1ccc(NC(=O)CN(C)C(=O)c2ccc(NC3CC3)c([N+](=O)[O-])c2)cc1,-68.6%
4,Cc1ccc(N2C(=O)N(CC(=O)Nc3ccc(C)cc3C)C(=O)C2C)cc1 (stereo not shown),7.69%
5,COc1ccc(S(=O)(=O)Nc2cccc(N(C)S(C)(=O)=O)c2)cc1C,-6.27%
6,CCOC(=O)c1ccc(NC(=S)NNC(C)(C)C)cc1,13.8%
7,O=C(NN1C(=O)/C(=C/C=C/c2ccco2)SC1=S)c1ccncc1,8.9%
8,COc1ccccc1/C=C1\SC(=S)N(CCC(=O)NNC(=O)c2ccccc2OC)C1=O,19.4%
9,CN(C)S(=O)(=O)c1ccc(NC(=O)CN2CCOCC2)cc1,14.3%
10,CCCCC(CC)Cn1c(O)c(/C=C2\C=NN=C2c2ccccc2)sc1=S (stereo not shown),13.6%
11,CC(=O)Nc1ccc(CC(=O)O)cc1,6.86%
12,C[C@]12CCC(=O)C=C1CC[C@@H]1[C@@H]2[C@@H](O)C[C@@]2(C)[C@H]1CC[C@]2(O)C(=O)COC(=O)CCC(=O)O,2.01%
13,CCOc1ccc(C2C(C#N)=C(N)N(N(C)C)C3=C2C(=O)CCC3)cc1 (stereo not shown),4.92%
14,Cn1c(=O)c2c(nc(Cl)n2Cc2ccncc2)n(C)c1=O,9.41%
15,CCOC(=O)c1[nH]cnc1N=Nc1c(O)ccc2ccccc12,20.1%
16,CCN1C(=O)/C(=C/c2ccc(OC)c(OC)c2)N=C1SCC(=O)NCc1ccco1,7.53%
17,Cc1ccc(N(Cc2ccccc2)C(=O)c2cc(S(=O)(=O)N3CCOCC3)ccc2F)cc1,13.3%
18,COC1(OC)N=C(N)C2(C#N)C(c3ccc4c(c3)OCO4)C12C#N (stereo not shown),5.72%
19,O=C(/C=C/c1ccc(Cl)c([N+](=O)[O-])c1)NCc1cccnc1,4.87%
20,CC(=O)c1c(C)[nH]c(C(=O)OCc2ccccc2)c1C,6.42%
21,CN(C)CC(C)(C)CNC(C(=O)Nc1ccc(Cl)cc1C(F)(F)F)c1ccccc1 (stereo not shown),-72.3%
22,COC(=O)c1ccc(NC(=O)COc2ccc(S(=O)(=O)NC(C)C)cc2)cc1,6.03%

row,Structure (SMILES),"hERG current change (%, negative = inhibition) at 1uM"
1,COc1ccc(Cl)cc1N1C(=O)C2CCCN2C1c1ccc(F)c(F)c1 (stereo not shown),9.22%
2,O=C(CCl)Nc1ccccc1C(=O)Nc1ccc2c(c1)OCO2,13.7%
3,COc1ccc(OC)c(NC(=O)CCNS(=O)(=O)c2ccc3c(c2)c(=O)n(C)c(=O)n3C)c1,7.79%
4,CCN(CC(=O)Nc1ccc(NC(C)=O)cc1)C(=O)CSCc1c(C)noc1C,6.09%
5,CC(C)(C)SCCNC(=O)CN(c1ccc(F)c(Cl)c1)S(C)(=O)=O,11.5%
6,COc1cc(CN2CCN(Cc3ccccc3C(F)(F)F)CC2)cc(OC)c1OC.O=C(O)C(=O)O,6.8%
7,CC1(C(=O)OCC(=O)Nc2ccc(C(N)=O)cc2)CC1(Cl)Cl (stereo not shown),12.2%
8,CCOC(=O)COc1c(Br)cc(/C=C2\SC(=O)N(CC(=O)N3CCCC3)C2=O)cc1OC,-0.0712%
9,COC(=O)c1sccc1NC(=O)CC1C(=O)NCCN1C(=O)Nc1ccccc1 (stereo not shown),10.5%
10,CC(Sc1nn(-c2ccccc2)c(=S)s1)C(=O)NCC1CCCO1 (stereo not shown),4.03%
11,CC1CCc2sc(C(=O)NNC(=S)NC3CC3)cc2C1 (stereo not shown),6.68%
12,CCOC(=O)Cc1nnc(NC(=O)CSc2nncn2C)s1,2.8%
13,COc1ccc(C(CNC(=O)COc2cc(C)c(Cl)c(C)c2)N2CCCCC2)cc1 (stereo not shown),10.8%
14,O=C(Nc1ccc2c(c1)OCO2)c1ccc(CO)cc1,12.1%
15,O=C(CSc1nnnn1-c1ccc2c(c1)OCCO2)N1CCN(C(=O)c2ccco2)CC1,1.93%
16,S=C(NCCSCc1ccc(Cl)c(Cl)c1)Nc1ccccc1,15.7%
17,COC(=O)c1c(C#N)c(N)nc2c1CCC2,15.5%
18,O=C(c1cc(F)ccc1F)C1CCCN(CCCc2ccccc2)C1 (stereo not shown),-76.6%
19,CC(=O)N1CCN(C(C)=O)C1c1ccccc1,11.3%
20,COc1ccc(Cn2c(O)c(C=Nc3ccc(O)cc3)c3ccccc3c2=O)cc1,8.8%
21,O=C(CCC1CCCCC1)NCc1ccc(F)cc1,6.93%
22,Nc1nc2ccccc2n1C(=O)c1ccc(F)cc1,7.63%

# Reference: article PMC4336329 (PLoS ONE, 2015)
